From PubChem BioAssay AID1508623 (National Center for Advancing Translational Sciences (NCATS), 2021)
About 450 (0.94%) of roughly 48,000 compounds were called active. Not shown: some 19% with an inconclusive outcome. Calls come from the whole dose curve; as a rule, active = well fitted inhibition curve with a large enough effect; inconclusive = small, poorly fitted or top-dose-only effect; inactive = no such curve, though single readings can be large or run the other way. Some of the results follow.

Assay: Primary qHTS for Identification of Small Molecule Inhibitors of Huntingtin Promoter Activity; note: nearly all actives have a fitted effect of over 50% in size
Settings: HEK293 HTT promoter firefly luciferase reporter (activity 0% = vehicle and -100% = no light), 24 h; series mostly up to 57.5 µM; activity change, negative = inhibition: at the top concentration
Method in brief: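 HEK293 cells carrying firefly luciferase reporters were seeded at 2,500 per well in Opti-MEM and cultured for 24 h. They were then treated with compounds at up to 57.5 uM final for 24 h at 37 degrees C before Dual-Glo luminescence readout.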
Potency is the fitted concentration of half-maximal effect.

Activity change, negative = inhibition, inactive:
CCc1nn2c(=O)cc(COC(=O)c3cccc(NC(=O)COc4ccccc4)c3)nc2s1 20%
CCOc1ccccc1NC(=O)C(=O)c1cc(C)n(-c2cccc(C)c2C)c1C -25.6%
CC(C)Cc1nn2c(=O)cc(COC(=O)c3ccccc3NC(=O)c3cccs3)nc2s1 -26.8%
CCc1cccc(C)c1NC(=O)C1CCN(c2nnc(C)c3c(C)n(-c4ccccc4)nc23)CC1 -19.2%
Cc1cc(C)cc(NC(=O)Cn2cc(C(=O)c3ccncc3)c(=O)c3cc(C)c(C)cc32)c1 -10.8%
COc1ccc(CNC(=O)C2CCN(S(=O)(=O)c3ccc4nc5c(c(C(=O)O)c4c3)CCCC5)CC2)cc1 -9.58%
CCCCCn1c(=O)[nH]c2cc(C(=O)N3CCN(c4cccc(Cl)c4)CC3)ccc2c1=O -13.1%
Cc1ccccc1NC(=O)c1cc2sccc2n1Cc1ccc(F)cc1 -18.7%
COc1ccc(OC)c(CNC(=O)c2cc(S(=O)(=O)N3CCC(C)CC3)cn2C)c1 -29.9%
COc1ccc(NC(=O)CCc2nc3c(C)nn(-c4ccc(C)cc4)c3n(C)c2=O)c(OC)c1 -4.23%
CCOC(=O)CCn1c(=O)c2cccn2c2cccnc21 -5.3%
CCOc1ccc(-c2c(C)nn3c(C)c(C(=O)Nc4cccc(Cl)c4C)cnc23)cc1OCC -8.3%
COCCN1Cc2cccc(C(=O)Nc3ccc(C(=O)OC)cc3)c2C1=O -0.747%
Cc1ccc(NC(=O)c2cc(S(=O)(=O)N3CCC(C)CC3)cn2C)cc1Cl -11.4%
N[C@@H]1CONC1=O
COc1ccccc1C(=O)Nc1ccc2nc(SCC(=O)N3CCCC3)sc2c1 8.63%
Cc1ccc2nc(-c3ccsc3)c(Nc3ccc(C(C)C)cc3)n2c1 0.963%
COCCNC(=O)CCCn1c(SCC(=O)c2ccc(F)cc2)nc2c(sc3ccccc32)c1=O -5.3%
Cc1ccc(NC(=O)/C(C#N)=C\c2ccc(-c3ccc(Cl)cc3)o2)c(C)c1 -0.0379%
CCN(CC)S(=O)(=O)c1ccc2c(c1)nc(CN(C)C(=O)Nc1ccc(C)c(F)c1)n2C 2.66%
CCc1ccccc1NC(=O)CN1C(=O)CCSc2ccc(S(=O)(=O)N3CCCC3)cc21 -30%
O=C(OCC1CCCO1)c1ccc2c(c1)N(Cc1ccccc1)C(=O)c1ccccc1S2(=O)=O (stereo not given) -1.58%
O=[N+]([O-])c1cncn1CCN1CCOCC1 6.6%
CCc1ccccc1NC(=O)C(C)n1c(=O)cc(C)c2c(C)nn(-c3ccccc3)c21 (stereo not given) -14.8%
CCOC(=O)C1CCCN(C(=O)Cn2ncc3c4ccccc4n(Cc4ccccc4)c3c2=O)C1 (stereo not given) -4.28%
COc1ccccc1NC(=O)c1cc2c(C)nn(-c3ccccc3)c2s1 -1.12% [at 11.5 µM]
COc1ccc(N2CCN(C(=O)COCc3cc(-c4ccc5c(c4)OCO5)on3)CC2)cc1 -29.5%
COc1ccc(NC(=O)c2sc3nc(C(F)(F)F)cc(C)c3c2N)cc1OC -14.4%
Cc1cc(C)cc(Oc2nc3ccccn3c(=O)c2/C=C(\C#N)c2nc3ccccc3s2)c1 -4.17% [at 11.5 µM]
Cn1c(=O)cc(SCC(=O)N2CCN(c3ccccc3F)CC2)c2ccc(Cl)cc21 -9.73%
COCCCNC(=O)CSc1nc2cc3c(cc2c(=O)n1CCCC(=O)NCc1ccc2c(c1)OCO2)OCO3 -12.3%
CCn1nc(-c2ccccc2)c(-c2ccccc2)c(C(=O)Nc2ccc(NC(C)=O)cc2)c1=O -4.91%
Cc1ccc(Cn2ccnc2SCC(=O)Nc2nnc(C)s2)cc1 -27%
COc1ccc(OC)c(NC(=O)Nc2c(C)n(C)n(-c3ccccc3)c2=O)c1 -17.1%
COc1ccc(CNC(=O)c2cc3sccc3n2Cc2ccc(C)cc2)cc1 22%
O=C(Cc1ccccc1)Nc1sc2c(c1C(=O)Nc1ccc(Br)cc1)CCCC2 -30.5%
Cc1ccc(C(=O)NC2(C(F)(F)F)N=C(c3ccccc3)N(Cc3ccccc3)C2=O)cc1 (stereo not given) -16.4%
CCc1c(C)[nH]c2c1C(=O)C(CN1CCOCC1)CC2 (stereo not given) 7.91%
CCOc1ccc(CNC(=O)c2cc(-c3ccc(Cl)s3)nc3ccccc23)cc1 -12.7%
Cc1ccc2c(CNCc3ccc(C)o3)c(C(=O)O)n(Cc3ccc(F)cc3)c2c1 -28.2%
COc1ccccc1NC(=O)Cn1c(=O)n(CC(=O)NCc2ccccc2Cl)c(=O)c2sccc21 -1.48%
O=C(c1ccc2c(c1)N(Cc1ccc(Cl)cc1)C(=O)c1ccccc1S2=O)N1CCCCC1 (stereo not given) -28.9%
CCO/C([O-])=N/c1c[n+](N2CCOCC2)no1 12.3%
CCOC(=O)C1CCN(C(c2ccc(C)cc2)c2c(O)cc(C)n(CCOC)c2=O)CC1 (stereo not given) -7.76%
COc1ccc(CCNC(=O)CCCn2nc(C)c3sc4ccccc4c3c2=O)c(OC)c1 -9.73%
CCOc1ccc(NC(=O)Cn2c(=O)n(CCCS(=O)(=O)C3CCCCC3)c(=O)c3ccccc32)cc1 -7.28%
Nc1ccc(O)c([N+](=O)[O-])c1 8.48% [at 116 µM]
Cc1ccc(C(=O)Nc2ccccc2)cc1S(=O)(=O)Nc1ccccc1 -18.4%
COc1ccc(N2CCN(C(=O)C3CCN(S(=O)(=O)c4cn(C)cn4)CC3)CC2)cc1 -6.54%
Cc1ccc(OC(=O)CSc2nnc(-c3ccc4c(c3)OCO4)o2)cc1 -16.5%
Cc1ccc(-n2ncc3c(N4CCC(Cc5ccccc5)CC4)ncnc32)cc1C -1.07%
Cc1cccc(N(C)C(=O)Cc2c(C(=O)O)[nH]c3ccccc23)c1 -21.7%
COc1ccc(CCNc2nc3cc(OC)c(OC)cc3c3nc(-c4ccccc4)nn23)cc1OC -32.5%
COC(=O)c1cc(NC(=O)c2sc3ccccc3c2Cl)cc(C(=O)OC)c1 -2.04%
COC(=O)c1cc2occc2n1CC(=O)Nc1ccc(C)cc1Cl -14.6%
N[C@@H](CCC(=O)N[C@@H](CS)C(=O)NCC(=O)O)C(=O)O 6.14% [at 25.2 µM]
Cc1ccc(C)c(-n2nnc(-c3nc(-c4ccccc4C)no3)c2C)c1 23.8%

Potency, active:
Cc1ccc(NC(=O)C2CCN(c3nc(-c4ccc(C(C)C)cc4)no3)CC2)c(Cl)c1 0.1 µM
CCOc1ccc(-c2cc(CCCC(=O)NCCc3cc(OC)c(OC)c(OC)c3)no2)cc1 15.8 µM
Cc1cccc(N2CCN(c3ncnc4c3nc3n4CCCCC3)CC2C)c1 (stereo not given) 5.01 µM
